Variants at the floor of the assay are shown more often than the library holds them.
B1: TPR 5TU (parent)
chain: GGAUCUUCUCGAUCUAACAAAAAAGACAAAUCUGCCACAAAGCUUGAGAGCAUCUUCGGAUGCAGAGGCGGCAGCCUUCGGUGGCGCGAUAGCGCCAACGUUCUCAACUAUGACACGCAAAACGCGUGCUCCGUUGAAUGGAGUUUAUCAUG

Variants of: B1
Assay: polymerase ribozyme fitness, log enrichment relative to wild type (log ratio); higher = more active; in vitro selection for triplet polymerase activity
How it was run: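 Mutant libraries were PCR-built and transcribed for each subunit of a heterodimeric triplet polymerase ribozyme and selected for one round in triplicate at −7 °C, frozen, before gel excision of extended constructs and streptavidin-bead capture. Input and output libraries were Illumina-sequenced, keeping genotypes with ≥10 input reads and ≥1 read per output. Fitness is a logarithmic ratio of genotype to wild-type enrichment, in base 2, using inverse-variance-weighted replicate averages.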

Variant | polymerase ribozyme fitness (log ratio)
C87U A142C U148A | ≤ -4.2
C87U C96U C125U U144A | -2.68
C87U C99A C108A C114G | ≤ -4.2
C87U C99U A137U | ≤ -4.2
C87U C105G U130G | ≤ -4.2
C87U C118G A142U G152U | ≤ -4.2
C87U C125A C131U | 0.186
C87U C129A | -2.76
C87U G94C | -2.05
C87U G141U | 0.462
C87U G143U | -2.69
C87U U90G | ≤ -4.2
C87U U102C | -1.21
G88A A91G | ≤ -4.2
G88A A106G | -3.55
G88A C96A C125U G126U | ≤ -4.2
G88A C103G | ≤ -4.2
G88A G92A C116A A120U C131G A147G | ≤ -4.2
G88A U101A | ≤ -4.2
G88A U144G | -3.35
G88C A91U A115U U148G | ≤ -4.2
G88C A97G C118G U145C C149G | ≤ -4.2
G88C A106C C123A G126C A138G | ≤ -4.2
G88C C96G | ≤ -4.2

Variant | polymerase ribozyme fitness (log ratio)
G88C C99A A119U | ≤ -4.2
G88C C105G G128C A142C | ≤ -4.2
G88C C108G | ≤ -4.2
G88C C116U | -3.99
G88C G100U A110C | ≤ -4.2
G88C G143C | -3.92
G88C U145C | ≤ -4.2
G88C U151A | ≤ -4.2
G88U A98G G117A | ≤ -4.2
G88U A121U | ≤ -4.2
G88U C103G C105A U109A A142C U148C | ≤ -4.2
G88U C116U A137C C149G | ≤ -4.2
G88U G128A | ≤ -4.2
G88U U127A C129U | ≤ -4.2
G88U U130A A147C | ≤ -4.2
A89C C93G A150C | ≤ -4.2
A89C C93G C96U U148G | ≤ -4.2
A89C C93G U102G C103A U145G | ≤ -4.2
A89C C103A | -2.11
A89C C105U | 0.174
A89G A107U U134A U135A A142C | ≤ -4.2
A89G A122C | -1.77
A89G C99G U102A C123G U135C U145G | ≤ -4.2
A89G G92C G152U | ≤ -4.2

Variant | polymerase ribozyme fitness (log ratio)
A89G G94A C105G G112C | ≤ -4.2
A89G U90A A91G C99G G100U C116A U145C U148G | ≤ -4.2
A89G U102G A106U C131A | ≤ -4.2
A89G U111C | ≤ -4.2
A89U A150G | -0.42
A89U C93G A147U | -2.7
A89U C95G C103G G133C U135G | ≤ -4.2
A89U G94C A98G A150G | -2.68
A89U G94C C114A U127A | ≤ -4.2
A89U U151C | ≤ -4.2
U90A A106G C129A | ≤ -4.2
U90A A113U | ≤ -4.2
U90A C93A | ≤ -4.2
U90A C93G A142C | ≤ -4.2
U90A G141C | ≤ -4.2
U90C A147U | -3.58
U90C C93U G128C | ≤ -4.2
U90C G94A C123A G141U | ≤ -4.2
U90C G94C | ≤ -4.2
U90C U127C | ≤ -4.2
U90G A97G C114U U139G | ≤ -4.2
U90G A107U | ≤ -4.2
U90G C93A | ≤ -4.2
U90G C96A G133A U144A | ≤ -4.2

Variant | polymerase ribozyme fitness (log ratio)
U90G C99A C116U U134A A137U | ≤ -4.2
U90G C99G A150U | ≤ -4.2
U90G C108U | ≤ -4.2
U90G C129A C132G | ≤ -4.2
U90G C132U | ≤ -4.2
U90G G92A | ≤ -4.2
A91C A107G | ≤ -4.2
A91C A113G A138U | ≤ -4.2
A91C A120G G126A | ≤ -4.2
A91C C95U C103G C116G | ≤ -4.2
A91C C96G | ≤ -4.2
A91C G92A G94A G141C | ≤ -4.2
A91C G100C C103G G143U | ≤ -4.2
A91C G136C G141U A150C | ≤ -4.2
A91C U134A | ≤ -4.2
A91C U135G | ≤ -4.2
A91C U139G | ≤ -4.2
A91G A107C U144A | ≤ -4.2
A91G A107U A147U U148C | ≤ -4.2
A91G C93A U101C U148G | ≤ -4.2
A91G C95G | -3.67
A91G C114G G124A | ≤ -4.2
A91G C118U A121U A122U G124A | -3.56
A91G C123G A150C | ≤ -4.2

Variant | polymerase ribozyme fitness (log ratio)
A91G C125A A150U | ≤ -4.2
A91G G92A C125G C129G A137G | ≤ -4.2
A91G G94A | -3.47
A91G G140C U148A U151C | ≤ -4.2
A91G G140U | -4.19
A91G U139C | ≤ -4.2
A91U A97U C132U | ≤ -4.2
A91U A98G | ≤ -4.2
A91U A121C | ≤ -4.2
A91U C93A A107U C114U G126A G152A | ≤ -4.2
A91U C93G G112A G128U G136A U148A | ≤ -4.2
A91U C95A C108U | ≤ -4.2
A91U C95U | ≤ -4.2
A91U C95U C129G | ≤ -4.2
A91U C95U U109G A121G G136C G143A | ≤ -4.2
A91U C99U | ≤ -4.2
A91U C103G A110C G133C U145G | ≤ -4.2
A91U C118A U139C | ≤ -4.2
A91U G92U C132A | ≤ -4.2
A91U G94A G128U | ≤ -4.2
A91U G100U | ≤ -4.2
A91U G128A U139C A150U | ≤ -4.2
A91U G133A U148C | ≤ -4.2
A91U G140U | ≤ -4.2

Variant | polymerase ribozyme fitness (log ratio)
A91U G141A U144G | ≤ -4.2
A91U U130G | ≤ -4.2
A91U U139C G152U | ≤ -4.2
G92A A107G | ≤ -4.2
G92A A115C | -3.48
G92A A150C | ≤ -4.2
G92A C96G C131G | ≤ -4.2
G92A C105A A147U | -4.16
G92A C108G U139G A142G C149A | ≤ -4.2
G92A C108U | ≤ -4.2
G92A C116A G143C A150G | ≤ -4.2
G92A C116G C123G | -2.92
G92A G141A | -2.48
G92A G141C | -3.71
G92A U101C C114A A137G | ≤ -4.2
G92A U101C G143U | ≤ -4.2
G92A U101G A113G A122U U146A | ≤ -4.2
G92A U104A A106C C108A | ≤ -4.2
G92A U127A A150U | -4.1
G92A U135A U145C | -3.89
G92C C103A | -3.4
G92C C105U | -0.217
G92C G94A A142U G143U A147G | ≤ -4.2
G92C G124U G152U | -3.69

Variant | polymerase ribozyme fitness (log ratio)
G92C G140C | ≤ -4.2
G92C U104G | -1.85
G92C U111C | -3.45
G92C U135G A142U | -4.1
G92U A106G | -0.318
G92U A115C A119U G140C | ≤ -4.2
G92U C93U A138C | ≤ -4.2
G92U C93U C95A C99A U101G | ≤ -4.2
G92U C95U A137U | -4.11
G92U C103U C108G G133C | ≤ -4.2
G92U C116G U127G | ≤ -4.2
G92U C116U | 0.0946
G92U G141A | -1.81
G92U G141C C149G | ≤ -4.2
G92U U101G | 0.0893
C93A A106C A110C G112C C131U G133U U134A U145G | ≤ -4.2
C93A A107G U146C | ≤ -4.2
C93A A121C U148C | -2.37
C93A A138G G143C | -3.66
C93A C95U U109G A119G C131A | ≤ -4.2
C93A C96A | -3.78
C93A C96G A97C U148A | ≤ -4.2
C93A C105U | -2.67

Reference: the RNAGym collection of RNA variant scans (doi:10.1073/pnas.2313332121)
